Variants at the floor of the assay are shown more often than the library holds them.
B1: tRNA (parent)
chain: CUCUCGGUAGCCAAGUUGGUUUAAGGCGCAAGACUUUAAUUUAUCACUACGAAAUCUUGAGAUCGGGCGUUCGACUCGCCCCCGGGAGAUUUUUUCCUCGAGCAA

Variants of: B1
Assay: nonsense suppression (GFP-seq) (ratio to wild type); higher = more function; SUP4oc tRNA, yeast GFP reporter sort-seq
In short: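 Raffinose/galactose medium with 80 mg/L adenine was used to grow yeast carrying genome-integrated tRNA variants (~3% random-mutation library), RFP, and a galactose-driven GFP ochre reporter. Cells went into GFP/RFP bins, which were Illumina-sequenced, and variants with ≥100 reads and ≥30 cells were scored. Nonsense suppression (GFPSEQ) is the per-bin median GFP/RFP weighted by estimated cell share and expressed relative to the unmutated parent tRNA.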

Nonsense suppression, 0.0517:
A9G A24G

Nonsense suppression, 0.36:
A9G U21A

Nonsense suppression, 1.06:
A9G G61C

Nonsense suppression, 0.566:
A9C U20C C75A

Nonsense suppression, ≤ 0.026:
U8C G69A G85U
A9C A87C
A9C C68G
A9G G65A C81U
A9G U71A A74C
A9C U57C G78C
A9G A14U A23G U71C C77A G85A
A9G A33G C34G U55A U76A G84C
A9G U35G G88U
A9C U55A
A9C C72G
A9G U22G U63A C81A
U8G G67C G85C
U8G G28A A30C A54U
U8G G18C A30G G67U
A9C A24G C34G
A9G G26U
A9G A30C
A9C C56U C79G C81A
U8G A24G
A9G C56G G67U U71A G88A
U8G G10U
A9G A33G U35G C80G
U8G C11U
U8G U20G U21A A33C U55C
U8C U58G G85A
A9G G18C U63A G88C
U8C G78U C81A A87C
A9G C27G G67C G85A
U8G U22C A60C C72G
U8G G61C
U8G G61U
A9G G25U G85C
U8C G25C G28U
A9U A23U A33U G67A G84C
A9G A33U U63G C80G
A9C A54C G65C G86A
A9C G66A G88C
U8G A23G G26C
A9G U20C C64G G66U C68A
U8C U20C G28A G32A
A9C A24C U76G
U8G U57A
U8C G61A U70G
A9G G25U C56A
A9G A14U A54C G66A G88U
U8G G26C C27U
A9G C29G A74G C75A A87C
A9G A30G G32C G61U G67U
A9G U70G U76A C83G G86U
A9G U17G G78C
A9G G65A C81G A89C
A9C U35A
A9G U57G G59C G67A U70C G86A
U8G G32C U57A A62U
U8G C12U G66U
A9C C29A
U8C G28C U58C
A9C G86U
A9C G32C G59U C68G
U8C U63C C75U G84C
U8G G25C G32A U76G
A9G G59C C83U
U8G A9U C11A G26U
U8G G85A
A9G A60C C68U G73A
A9C G19A C82A C83A
A9C U57G C82U
U8G A23C G86A
U8G U17G G69U C80G
A9G G19C G69U
U8G C11U A13C G32U G69A
A9G C29U A30G U76A
A9C A13U G69U A89U
A9G C27A A33C
A9C G19A C29A
A9G G25C G65A G69A
U8G C75G G85C
A9G G25C U57C
U8G G66A
A9C A31C U71A
A9G G19U G65U G67U G78A
U8G A14U
U8G U16A A62C C68U
U8G G25A
U8C U57G C75G G88A
A9G U35A C80G
U8C U17A U57A U76G C81A
U8G U21A C83A
U8G G18C G59A
A9G U35A A60U G66A C83G G85U
U8C G26U G84C
U8G C34A G61A A62U C80A C81U
A9C G66A C79U
U8G A9C U17C G66U
A9C A13C G78C
U8G A31C U57G G88A
U8G A9C A24C C34G U70C
A9G G15A U16A A62C U70G A74C
A9C G84A
A9C U70A
U8G U16A
U8G U16C
U8G G28C C56A G69U
U8G G28U A31C G67A A89U
A9G U58C C64G U76A
U8G A9C U58C
U8G A30U G32C
U8G G10C G15C U21A
U8G A13C G28C C64U U70A C72G G84U
A9C C29G U63C A89G
A9C A74U C77G G85C
A9U A13G A54U C83U
A9G A13C A33C G78A
U8G U22C G88A
A9C A74C
U8C U21A U57A
A9G A13C A60G
A9C G61C G73C
U8G A87U
A9G G32A A54G G61U G73U
U8G G32A C79A
U8C G28C C34U C56A U63C
A9G A60C
U8C G18U G25A C68A
A9G A62G
U8C U20A C29G U76A
A9C A30G C34A
U8G G10A G28C U76G
U8G A23C
A9U A23U A30U
A9C G73U
U8G G73U
U8G C27U U71C U76A
A9C U20G G65U C82A
A9G A23C G25C
U8G A14G U17C G18U A60C G67U
A9C U63C G84U
A9C G18A C64U
A9G G18C A89U
A9G C11U G18A G32A A62C G66C A89C
U8G G61A A74G
A9G C77U
U8G U20A U70C A74C
A9C C12U A23C A87U
U8G C12U U63A G69U
A9G U71C G78A
A9G C29U A31U U35C C77G
A9G G19A G73C
U8G U71A G85A

Nonsense suppression, 0.92:
A9G U17A

Nonsense suppression, 0.222:
A9G A60G

Nonsense suppression, 0.466:
A9G A30G

Nonsense suppression, 1.24:
A9G G28A G61A

Nonsense suppression, 1.16:
A9C A13U A60U

Nonsense suppression, 0.323:
A9G U22C

Nonsense suppression, 0.938:
A9C C75A

Nonsense suppression, 0.0539:
A9G G84U

Nonsense suppression, 0.649:
A9C A87G

Nonsense suppression, 0.0588:
A9U A14U

Nonsense suppression, 0.0903:
U8C U21G

Nonsense suppression, 0.929:
A9C U76C

Nonsense suppression, 0.878:
A9C U22G

From the RNAGym collection of RNA variant scans (doi:10.1101/gad.245936.114)
